Data as given in paper PMC10726135.
The list shows a part of the results. At the low end of the ranking, values are background and their order means little. The protein was read in a cell extract, so binding may be indirect.

What follows are sequences tested against T1, HNF4alpha2 (COS-7 nuclear extract) (UniProt P41235) (assay: protein-binding microarray). Settings: COS-7 nuclear extract on double-stranded Agilent 4x180k PBM; binding buffer, salt, pH and temperature not given; high values mean tight binding; double strand, one strand shown; sequences stand for … in …GCCTAGGGAGATTAGAGTATCGGTCGA.
T1 sequence: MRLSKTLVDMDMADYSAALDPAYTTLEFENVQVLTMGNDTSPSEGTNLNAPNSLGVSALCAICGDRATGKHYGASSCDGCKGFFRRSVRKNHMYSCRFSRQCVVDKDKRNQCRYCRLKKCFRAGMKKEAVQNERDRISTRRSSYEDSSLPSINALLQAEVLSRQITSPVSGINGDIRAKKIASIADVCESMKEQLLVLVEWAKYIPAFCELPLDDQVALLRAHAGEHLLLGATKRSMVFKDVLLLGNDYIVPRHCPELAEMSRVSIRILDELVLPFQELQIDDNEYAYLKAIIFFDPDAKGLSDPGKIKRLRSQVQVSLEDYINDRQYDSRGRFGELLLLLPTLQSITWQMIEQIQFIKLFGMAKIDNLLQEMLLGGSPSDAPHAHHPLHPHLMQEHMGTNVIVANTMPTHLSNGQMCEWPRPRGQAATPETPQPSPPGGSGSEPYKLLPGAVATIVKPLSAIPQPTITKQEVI

Row | Sequence | binding signal (log2 normalized intensity)
1 | AGGGTAGGAGCCTCTGATTTGCTGATCCTA | -1.14
2 | AACTCTGAAGATTCACAGGTGGGATGCAAA | -0.782
3 | CCTGCTGGCCTGGGAACTTAGCGATTTGGA | -1.07
4 | GAAGATAAATCAGAAGAAAAAGGTAAGGAG | -1.25
5 | CTCCGCCCCGTTCCCGGCAGCCCGCGCGTG | 3.09
6 | CCAGAATTCTCCCTGCAGTCCTCTGCTTAT | 0.852
7 | CAAATTCCACACCCCCCACTCTTCATATCT | 3.21
8 | GTCTGGCATACAGGGTCCAAAGGTGTCAAG | 4.29
9 | GAGGAGTTAAAGCACAGTGTCTTTGTTTGG | 1.58
10 | CCAGGAAGCAAGACAATGCACTCATAACTA | -1.18
11 | TCGTCCCGTCAATCTGCAGCCGCCGGAGAA | -1
12 | CCTGGTATTAATGAGGCAAAGGTCAGGAGT | 4.05
13 | CTGGACTATGCCTTGAACTTTAAGGCACCT | 1.07
14 | GGTAGCCACTGACAGGAGGTATGCCAGGAA | -1.06
15 | TTTGACCGCTCATTTGATCCTCACAGTGCC | 0.124
16 | CATTCATACATTTGCCTGAACTTTAAACTG | 3.65
17 | AGTTAGCTACACGGGCCTGAAAACTGGAGG | -1.16
18 | ACTCCTGATAGCTAGAGAGTTCAAGAAGGG | -1.03
19 | AAGAAACATTCCAGACAGGAGGATTCCTGA | -1.11
20 | GGGTCCAGGTGCTGGGATGATTCCCTTATC | 0.73
21 | GAGGCTCTTATCAGCTGCAGGGATTATCAA | -1.04
22 | TTTGGGCCAAATATTTATGGCTTGGGTTTA | 0.64
23 | TATCTTACGCAACTGAAATTGCACTCTTTG | 0.872
24 | GTTTCGTAATATTTAGGTGTTTACTTACTG | 1.45
25 | TGAGCTAAGTCCCAAGGGATAGGCAGGAGT | -1.09

Row | Sequence | binding signal (log2 normalized intensity)
26 | TGTTTGTTCTTGCTACCTACTCATTCATAT | 0.973
27 | CACTAGGACATATATGAGGAAGGGTGTGTA | 0.919
28 | TCAAAGGTCAGCTCTCCTTTGTCTTCTTGT | 2.3
29 | GGTGAGGGATGAGGACTTTGATCAGCAATG | 4
30 | CACCTATGTGGTCAAAACTTTGTTTGAGTT | 1.69
31 | GCTTACAACTCTAAGGGGGAAAGTCCACGT | 3.75
32 | CAGGCCTGTGTCCAAACTTCAGGATTCTTT | -0.806
33 | TGTTATCAAGTGAGAAACCACAGGAGTGCC | -1.06
34 | GATCCCTGAACTTTGCTCCCACCCTGCAAT | 4.6
35 | AGAATCTACAAGGACCAGATTCTTAAAGGG | -1.19
36 | GTCTTATCTACCTGGCTTGTTTGCAAAGCA | 0.899
37 | CTGAAAAATGTCAGCAAAGTGTCAAGTAGA | -0.924
38 | ATCTGCATGGACAGCACTTAGGGTTCAAAG | 1.71
39 | GGCCATTCTGATTTGATAAGATGTGTAAAA | 1.05
40 | GGTTAAAGGTTATTTGCTCACCAGTGACCA | 2.07
41 | TTCCCTCCCTGGTATGTACTTTCTTTTGGC | 2.04
42 | GAAAAAGTACACACCTGCAACCTATTTCTT | -1.05
43 | GCCTTGTGGGAGCTGTAGTACGCTCCCTGT | 0.248
44 | AGTGTCCCACTTCAGGCAGGAATGCTGAAC | -0.0191
45 | CGCCAGGTGGCCGAGCAGGACGCTACCCGC | -1.18
46 | CCCTCACTTACATCCTCAGGTAAAGATCAA | 1.26
47 | GACCTCTCTCTCCCCAGACAGCCACTGTTT | 2.51
48 | AGAGGTCAGAAGTCCAAAATCAGTCTCAGT | 3.2
49 | TCTAAAGTGACTTAGCAGGATTCTTGCTAC | -0.752
50 | TTCTTCCTATGGGATCAAAGTGCGACAGGG | 3.09

Row | Sequence | binding signal (log2 normalized intensity)
51 | CAAAGAGAAATGGTGTGGACAGCAGACAAC | -1.11
52 | GAAGGGAGGTGCCATGTCACCGCACAGGGG | -1.24
53 | CAGAAGGAGGGCGGGGAGTCTCCTGGGTAA | -0.989
54 | GCGGGGCTCAAAGGCGGCCCGGGTGGGGGT | -1.08
55 | TTCACCAAGAGGGAAAAGATGGTCTCTCAC | -1.13
56 | TGACCTGCAAGGTTCTCTCTTCTTCCCCTC | 2.47
57 | GAAATCATTCCAGAAAGACAGCTGCATTTG | -1.18
58 | CAGCAATAAATACCAAAGCCATGGCTCCAA | -1.09
59 | CCCCCCACCCCACACACACACAGCATTCCA | 5.05
60 | AGCCAGAGGCAGCAAGGTCAAAGTGCGTCC | 5.61
61 | TCTGATACACTCGCCGTGTGACTGAGGGCT | -1.22
62 | CCTTTCTGCCCTTTGAAGCATGTGATCTAC | 2.38
63 | CGGAGAGCAGGGCGTGGACTTCGCTCCGCC | 4.92
64 | GAGCCCCTGTGATACAACGGTTCAAAGGAC | 2.16
65 | TCAGTTTGGCTCTTATGTCCCTCCTGACCT | 3.25
66 | GGTCTGTTTGTGAAACAGTGGGCAATATGA | 1.14
67 | AACTCACTACAAACGCCTCTAAGCTCTTTC | -1.15
68 | TTTCTAAGAAAGTTCAGCCCTTAGGACCAG | -1.17
69 | AAATCCCCAAACTTAAAAGAAGCTACTAGC | -1.17
70 | TTCCCAGGAATTGGCCTGTGCCTCAATTGC | -0.315
71 | TTCCTTTCCCTTTATTTAGCCTCACTAAGA | -0.978
72 | CCACCCACACTGCAGCAAAACTTTAGGACT | 0.141
73 | TGTGTGTAGGCATAGGAGAAACACATAAAC | -0.883
74 | GTCAGTCTTTGTTCTAGTAAGGCCTTCAAA | 1.05
75 | ATTGGGATGGCAGCTTCATTCCAGCCCCAT | 1.27

Row | Sequence | binding signal (log2 normalized intensity)
76 | GAGGAAACAAACAGATATGCATTTGTCTCT | -1.17
77 | CTCCGCTGAAGTCAATGTCAGCTAGAGGCC | -1.13
78 | AGCAGAAAAGCTGTACCAATTATTGCGAGT | -0.745
79 | TTTTCCAGCAGCGGATCCAACCTGTTCTTT | 0.629
80 | TGACGGTATGTGAATGCCTGGGCATGGCTG | 0.0275
81 | TGAACTTTGCCTTGTACACAAAGACATTGC | 2.29
82 | GAATGCAACCACACCAACATGGACTTTGTC | 6.09
83 | CCCTCCTTAAGACCTAGATGGAATGTTGTG | 1.29
84 | TCCATATTGCAGACAGCATAGGAAGTGGGG | -1.13
85 | AACTTTGTTTGAGTTCCAAAGTCCATGTTC | 6.61
86 | CTTTTCACAGGAGAGGAGAAAGAGCAATCT | -1.08
87 | GCCCATGCTGGACCCTGGGCTTAGTTGCTC | 2.35
88 | TGCTGCACTGATAAGAAAGCAAAGTCCAAC | 4.21
89 | CCCCTGTGCAAACTTTTTCCTTTTCTTATC | -0.0646
90 | TTAACGCTAAAGAGGTATCATGAGGTATAT | 1.04
91 | AGCTGGGAGCTGCCGCAACATTGTCCAGCA | -1.19
92 | GTCTTACCGGGATTTTGTTGGGGAACTTTG | 1.82
93 | TTTTTTCCCCTCCCTCAGCTCTGCCCAGAC | 4.53
94 | ACATTCCACTCAGTCTCTTGAAATCCCAAG | -1.03
95 | CACCCTACCCCCATACTTTATTTAGCTTTA | 1.79
96 | CCTCCTCCTCCTTTTTTTTTTCAAGTGTTA | 1.42
97 | CTCACATGAGCTAGAGCTCGTGTCATCTCT | -0.899
98 | TGTGCTGGATGTTTCCTTTGAACTCTGCAT | 2.37
99 | GGACTTCGCTCCGCCGCTAGGTGGCGGGCT | 1.42
100 | GTTTTCGCAGCAAGTTACACAAGTAGAATG | 0.574

Row | Sequence | binding signal (log2 normalized intensity)
101 | CAGATTTAATGAAATACAGTAGACTTTTTT | -1.27
102 | GCAGGACAGTTTTGTGTGTTTAATGTTTTC | 1.37
103 | TGGGAGAACCTGTGCTTCTGGTTCTGGACT | 2.15
104 | GCCCTTCCCCCCTCTGCAGCCTTACCCAGT | 4.59
105 | AATACTTATGATATGAAGCATTGCTTGAGT | 0.613
106 | ATTATGGTAGGCAGCCTCTGAGATGGACTC | 3.44
107 | AGAAGTAGGATAAGGGTAGGGCCAATCTCT | -1.14
108 | GCTCTGGAATCTCTGGATTTCAGGTACACA | 0.577
109 | TAGATAACTCCAAGATTAGTGGGAAAGCTA | -0.908
110 | GCAAGGAATTCAACCCTTGTCACTTTCCCT | 1.24
111 | ATCAAAACCTTCATCTCTCTTTGTTGACAT | 1.81
112 | ACCCCTGAATAGGTCTTGGAATGTGACGGC | 1.38
113 | GCAGAGGCTGGGGCCCTCTTCCAGCTGAGA | -1.12
114 | CTTTGAAGCATGTGATCTACTCCCTGTTCT | 0.613
115 | TTCCTGGTATCAGAGTGGAGCCAGATGCAC | -0.737
116 | TGGGAAAAGGCGCATGCATAACCAAACAGA | -1.1
117 | TATCCCTCCGCCTCCCTCCCCCTTTCTCCG | 4.83
118 | TCATATATGCATTTGTCTCAGGTGGGCAGA | 1.5
119 | GGCCCCCACTAGAGAGACCGTCCCTGGGTA | 2.98
120 | AGTCCTTCTAAAGCAAATTTATAGGCACTA | -0.984
121 | TTAACCTCTATTGACCTTCTTATTTGGAGA | 2.04
122 | GTAACACAGAGGCAGTGGGACAATGAAGCC | -1.06
123 | TCTTTGTTCTAGTAAGGCCTTCAAATGATT | 1
124 | GTCACTCAGCCCGAGAAACGATGTGAGGTC | 0.454
125 | ATACTTTCAGCTAGCTGAGTGAGTAGGTTC | 1.31

Row | Sequence | binding signal (log2 normalized intensity)
126 | GCCCGTGTGGGCGGGTGCAGCTTCCACCTG | -1.22
127 | CTGCCTCTCTGTGGAATCCTGCTAGCAGCT | -1.08
128 | CTATTATGCCTTGACTTCAAATCATACTGA | 0.897
129 | CCGCCTTCACTCCCCTGACAGCATGTTCGG | 0.579
130 | CAACAGGTCCAAGGTTCAGAGCCTGGCTGG | 2.71
131 | GAGGAAAAGCTGTCTACAAACACAGAAGTG | -1.05
132 | CAAGGACTGAAAGAACACAGCGCAGCACAC | -1.15
133 | CAGGACGCTACCCGCTTGGCGTAGGCAACT | -1.1
134 | ACAACCTACTCTTTCTCTGATGTCTGCTGA | 1.03
135 | TCCTGCTGTTCCTTCAACACACAAGGCCCA | 1.08
136 | TAGCACTCTGGACTCTGAATCCAGCGATCC | 1.83
137 | GGGAAGCTGTGTGAAGTGACTTGCCCTGTT | 1.85
138 | CTGCCTTTCCCAGATGGATTGATAGACTTA | 0.627
139 | CACACACACACACATTGCAGTATGCCCCCC | 5.1
140 | ATCTTATCAGAAACACACCCTTGGGGCTGA | -1.05
141 | CAACCCTTGACCCCAGTAACAAAGGAAAGA | 3
142 | ATTACATGGAAGCCTTACCAGTAGGACCAC | -1.05
143 | AGACATGGACTCTGGGATCTCAGGGTGGAC | 1.7
144 | CTCGTGGCCTCCACACATTGCCACACTATT | -1.14
145 | CCGGGCGGCAGCACAAGGCGGTAGCCATGG | -1.16
